# Test results published in article PMC12040169 (PLOS Biology, 2025).
# The list shows a part of the results.
# Tested on: T1, C. trachomatis L2/434/Bu expressing GFP (CTL2-GFP)
# T1 construct: L2/434/Bu GFP intracellular growth in HeLa cells
# Parameters: species or system HeLa; C. trachomatis total inclusion area by high-content imaging, normalised to DMSO
# Settings: total inclusion area; 28.5 h, 10 µM; inhibitor
# How it was run: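 Post-fluorescence-read fixation, DNA staining with Hoechst and high-content imaging; GFP inclusion area and number per well, and nuclei counts, used as proxies for bacterial growth and host viability.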
row,SMILES,% of control remaining
1,Cc1cccn2c(CN3CCC(O)CC3)c(C(=O)N3CCCCC3)nc12 [CBK307639],68.3301
2,Fc1ccc(-c2cccc(N3CCN(c4ccccn4)CC3)n2)cc1Cl [CBK036877],92.1786
3,COc1cccc(NC(=O)CN2CCC(NC(=O)c3cccs3)CC2)c1 [CBK305800],47.7446
4,Cc1nnc(CS(=O)(=O)Cc2csc(C(C)(C)C)n2)n1C1CC1 [CBK305489],52.3281
5,O=C(c1ccc(=O)[nH]n1)N1C2CCC1CC(c1ccc(F)cc1)C2 (stereo not shown) [CBK283737],102.822
6,CC(=O)NCc1cccc(-c2cc(C(=O)Nc3ccc4c(c3)OCCO4)cnc2O)c1 [CBK149871T],98.4359
7,CCOc1cc(S(=O)(=O)NCCCN2CCOCC2)c(C)cc1C [CBK268764],107.398
8,CSc1cc(C)c2c(c1)COC1(CCN(CC3CC3)CC1)O2 [CBK061383],110.6
9,COc1ccc(N2CCN(c3cncc(-c4ccc(C(N)=O)cc4)n3)CC2)cc1OC [CBK065820],112.368
10,COc1ccc(OC(=O)c2ccc3nonc3c2)cc1 [CBK083571],98.5808
11,N#CCCCN1CCC(Oc2nccnc2OCc2ccc(F)cc2)CC1 [CBK153643],104.578
12,O=C(Nc1ccc2cc[nH]c2c1)c1cccnc1 [CBK160053],103.82
13,CCNC(=O)N[C@H]1CO[C@H]2[C@@H]1OC[C@@H]2Nc1nccc(-c2cccc(F)c2)n1 [CBK289536],107.953
14,O=C(C1=C(O)C(=O)N(CCCn2ccnc2)C1c1ccncc1)c1cccs1 (stereo not shown) [CBK111017],101.201
15,CC(C)C(C(=O)O)N(C)C(=O)OCc1ccccc1 (stereo not shown) [CBK286593],66.9285
16,Cc1nnc(CCn2cnc3cccnc3c2=O)s1 [CBK307125],97.9097
17,CCc1nc(CNc2ccc(NC(C)=O)cc2Cl)cs1 [CBK305103],50.4465
18,CN(CC(=O)O/N=C(\N)c1ccc(I)cc1)S(=O)(=O)c1cc(Cl)ccc1Cl [CBK268389],95.589
19,O=C(CCSc1nc(-c2ccco2)cc(C(F)(F)F)n1)N1CCN(c2ccccn2)CC1 [CBK267626],84.2486
20,Nc1ncc(-c2cccc3ncccc23)nc1NC1CCOCC1 [CBK063852],88.1861
21,O=C(O)CC(CN1C(=O)c2ccccc2C1=O)C(=O)c1ccccc1 (stereo not shown) [CBK287221],97.182
22,COc1ccc(-n2c(SCC(=O)c3ccccc3)nc(O)c(Cc3ccccc3)c2=O)cc1 [CBK263398],91.6303
23,O=C(c1nccs1)C1CCN(C(=O)C2CCCCC2)CC1 [CBK284175],68.4087
24,O=C(O)[C@H]1CN(C(=O)c2cccs2)C[C@@H]1c1ccc(F)cc1 [CBK283734],79.3177
25,CC(=O)[C@H]1C[C@@H](CC(=O)Nc2cc3cccnc3nc2Cl)C1(C)C [CBK091351],105.371
26,Cn1ncc2c(NCCCC3CCOC3)nc(C(C)(C)C)nc21 (stereo not shown) [CBK307363],100.006
27,Cc1nc(CC(=O)N2CCC[C@@H]3[C@H]2CCCCc2ccccc2OCC(=O)N3C)cs1 [CBK292091],96.5025

row,SMILES,% of control remaining
1,COc1ccc(N2CCN(c3cc(-c4cccc([N+](=O)[O-])c4)ncn3)CC2)cc1OC [CBK091031],113.898
2,CCN(CC)CC(O)Cn1ccc(-c2cccs2)n1 (stereo not shown) [CBK005967],89.4183
3,O=c1c(-c2nncn2-c2ccccc2)coc2c(O)c(O)ccc12 [CBK266889],117.166
4,CC(C)(C)OC(=O)N(c1cncc(N2CCNCC2)n1)[C@@H]1CCOc2ccccc21 [CBK172251G],27.485
5,O=C(COc1ccc(-c2ccccc2)cc1Cl)N1CCN(C(=O)C2CC2)CC1 [CBK295640],86.1038
6,NC(=O)c1cccc(CN2CCOC3(CCN(C(=O)OCc4ccccc4)CC3)C2)c1 [CBK161100T],72.9679
7,COc1ccc(CN2CCC(c3ncc(C(=O)Nc4ccc(F)cc4)c(C)n3)CC2)cc1 [CBK285629],65.7402
8,COCc1cc(O)nc(Cc2c(Cl)cccc2Cl)n1 [CBK022389],51.2581
9,CCOc1ccc(-c2cncc(Nc3ccc4c(c3)OC(F)(F)C(F)(F)O4)n2)cc1 [CBK065728],91.6724
10,O=C(NCCCc1ccc(F)cc1)c1cccc(N2CCCC2=O)c1 [CBK282684],111.517
11,NS(=O)(=O)c1cnc(Cl)c(Br)c1 [CBK034079],18.5539
12,CCc1ccc(C(O)CNC2CCN(C3CCCCC3)CC2)cc1 (stereo not shown) [CBK304604],8.973
13,O=C(O)CC(CNC(=O)Cc1c[nH]c2ccccc12)c1ccc(Cl)cc1 (stereo not shown) [CBK286598],87.1086
14,O=C(NC1CC2CCC(C1)N2Cc1ccccc1)c1cccc(Cl)c1 (stereo not shown) [CBK116291],76.5518
15,Cc1ccc(S(=O)(=O)Nc2nc3ccccc3nc2Nc2ccc(C(=O)O)cc2)cc1C [CBK300516],69.1555
16,CN1CCN(C(=O)CN(Cc2ccc(Cl)cc2)S(=O)(=O)c2ccc(Br)cc2)CC1 [CBK265771],99.6096
17,c1ccc(CNC2CCc3[nH]c4ccccc4c3C2)cc1 (stereo not shown) [CBK091587T],100.362
18,Cc1nc(N)nc(NCCC2CCCN(C)C2)c1Cl (stereo not shown) [CBK307445],62.5586
19,CC(=O)N1C[C@@H]2CCCCN(CC(=O)NC3CC3)[C@@H]2C1 [CBK285508],87.6375
20,CCCc1nn(CC(=O)NC(C)C)c(=O)c2cc3ccsc3n12 [CBK284147],77.8588
21,Cc1cc(=O)oc2cc(SCc3ccc(SC(F)(F)F)cc3)ccc12 [CBK002897],80.9831
22,O=C(Nc1ccc(S(=O)(=O)Nc2nccc(/C=C/c3ccc(Cl)cc3)n2)cc1)c1ccc(Br)cc1 [CBK263500],110.356
23,CN1CCN(CC2(Cn3ccnc3-c3ccc(C(=O)O)cc3)CC2)CC1 [CBK307641],89.9332
24,CC(=O)Nc1ccc(C(=O)N2CCCC2c2cccc(Cc3ccc(Cl)cc3)n2)cc1 (stereo not shown) [CBK286144],67.935
25,CCOC(=O)C1=C(C)NC(=O)NC1c1cccs1 (stereo not shown) [CBK086430],26.5
26,Cc1ccc(S(=O)(=O)Nc2ccc3c(ccn3CCC3CCN(C(=O)OC(C)(C)C)CC3)c2)cc1Cl [CBK172990],97.7829
27,COc1ccc(C(=O)N2CC[C@H]3NC(=O)N(Cc4ccccc4)C(=O)[C@H]32)cc1 [CBK289293],109.842

row,SMILES,% of control remaining
1,COc1cccc(N2N=C3NNC(N)=C3N2)c1 [CBK093665],75.4992
2,N#CCCN(C(=O)NCc1c(Cl)cccc1Cl)C1CCCCC1 [CBK156371],96.1097
3,O=S(=O)(Cc1noc([C@@H]2C[C@@H](O)CN2Cc2ccc(F)cc2)n1)c1ccc(F)cc1 [CBK288831],118.846
4,CN(C)CCNC(=O)Cn1c(-c2cccs2)cc2cccnc21 [CBK282555],103.762
5,CC1(C)C(CC(=O)NC2CCCCC2)CC1C(=O)NC1CCCCC1 (stereo not shown) [CBK009260],87.3932
6,COc1ccc(OC)c(-c2nc(Nc3ccc(Cl)cc3Cl)sc2CC(=O)O)c1 [CBK264175],97.4576
7,Cn1cncc1CN(Cc1ccccc1)C1CC(C)(C)NC(C)(C)C1 [CBK283226],95.0899
8,COc1ccc(CC(=O)NC(c2nnc3ccccn23)C(C)C)cc1 (stereo not shown) [CBK304607],57.0152
9,O=C1C=C([C@@H]2O[C@H](CO)[C@H](O)C2O)C(=O)N1 (stereo partly shown) [CBK201255],108.22
10,CN(CC1COc2ccccc2O1)C(=O)CC1CCN(C(=O)CC2CCCCC2)CC1 (stereo not shown) [CBK286265],116.438
11,O=C(Nc1ccccc1)c1ccc(COc2ccc3ccccc3c2)o1 [CBK265897],84.8454
12,Cc1ccc(NS(=O)(=O)c2cc3c(OC4CCNCC4)nccc3s2)cc1 [CBK046309C],95.1476
13,NS(=O)(=O)c1ccc(NC(=S)NNC(=S)Nc2ccc(F)cc2F)cc1 [CBK267102],112.34
14,Fc1ccc(CN2CC3CCCC(C2)C3N2CCOCC2)cc1F (stereo not shown) [CBK282270],86.5006
15,COc1ccc(C(=O)Nc2ccc3c(c2)C(=O)N(CCC(=O)O)C3=O)cc1 [CBK265921],118.784
16,Cc1ccc(CN2CCC(O)(Cn3ccc4ncccc43)CC2)o1 [CBK284751],128.429
17,O=C(Cn1c[n+]([N-][N+](=O)[O-])cn1)Nc1ncc(Br)cc1Br [CBK262342],120.609
18,Cc1ccc2c(c1)C(Oc1cncc(N3CCNCC3)n1)CCO2 (stereo not shown) [CBK172334G],69.0149
19,CN(c1ccccc1)c1cc(-c2cccc(O)c2)nc2ccnn12 [CBK037121],82.2171
20,COc1ccc(CCNC(=O)N2CCN(C3CCN(C)CC3)CC2)cc1OC [CBK155897],110.92
21,CCc1[nH]nc(C)c1Cc1c(Cl)cccc1Cl [CBK093598],85.8022
22,CN(C)CCn1c(=O)c2c(ncn2C)n(C)c1=O [CBK012590],24.9786
23,O=C(CC1(C(=O)O)CCCC1)NC1CCS(=O)(=O)C1 (stereo not shown) [CBK286855],73.6492
24,CC(C)CNc1nc(-c2cccnc2)cnc1N [CBK063780],137.471
25,C1CN(c2nc(N3CCOCC3)nc(N3CCOCC3)n2)CCN1 [CBK261380],110.58
